Data taken from the supplement of paper PMC12217912.
Some of the results follow. Sequences were assembled here from the parent chain. Inactive controls read about 0.05.

B1: TEV protease; numbered along this chain (parent)
chain: MGESLFKGPRDYNPISSSICHLTNESDGHTTSLYGIGFGPFIITNKHLFRRNNGTLVVQSLHGVFKVKDTTTLQQHLVDGRDMIIIRMPKDFPPFPQKLKFREPQREERICLVTTNFQTKSMSSMVSDTSCTFPSGDGIFWKHWIQTKDGQCGSPLVSTRDGFIVGIHSASNFTNTNNYFTSVPKNFMELLTNQEAQQWVSGWRLNADSVLWGGHKVFMVKPEEPFQPVKEATQL

Variants of: B1
Assay: raw area under fraction-flipped curve 0-4 h after induction (AUC4h, not background-subtracted), DNA-recorder readout of cleavage of the substrate (dimensionless); higher = more cleavage of the substrate by the protease variant
Conditions: temperature: 34 °C; time window: 0-4 h after rhamnose induction
Protocol: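 In vivo DNA recorder in E. coli TOP10(DE3) ΔrhaA at 34 °C. Each TEVp single-site mutant (parent TEVp 0) is paired with a single-site variant of the 7-mer TEVs (canonical ENLYFQ|S). The substrate sits between flexible linkers in a Bxb1-sfGFP-TEVs-SsrA fusion, so cleavage stabilises Bxb1 and speeds flipping of a recombination array, read by NGS. The value is the raw area under the fraction-flipped curve over 0-4 h after rhamnose induction (AUC4h), with ≥20 reads per time point. It is not background-subtracted; inactive controls average about 0.047.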
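Note: Bxb1 expression induced with 0.2% (w/v) L-rhamnose at OD600 near 0.5, cultures sampled hourly, flipped fraction per protease–substrate barcode pair counted by paired-end Illumina sequencing.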

MGESLFKGPRDYNPISSSICHLTNESDGHTTSLYGIGFGPFIITNKHLFRRNNGTLVVQSLHGVFKVKDTTTLQQHLVDGRDMIIIRMPKDFPPFPQKLKFREPQREERICLVTTNFQTKSMSSMVSDTSCTFPSGCGIFWKHWIQTKDGQCGSPLVSTRDGFIVGIHSASNFTNTNNYFTSVPKNFMELLTNQEAQQWVSGWRLNADSVLWGGHKVFMVKPEEPFQPVKEATQL [D137C]
area with substrate EALYFQS: 0.111
area with substrate ECLYFQS: 0.0771
area with substrate EELYFQS: 0.0835
area with substrate EGLYFQS: 0.0988
area with substrate EHLYFQS: 0.0882
area with substrate EILYFQS: 0.0883
area with substrate EKLYFQS: 0.077
area with substrate ELLYFQS: 0.0763
area with substrate EQLYFQS: 0.0981
area with substrate EVLYFQS: 0.0852
area with substrate EWLYFQS: 0.0804
area with substrate EYLYFQS: 0.0854

MGESLFKGPRDYNPISSSICHLTNESDGHTTSLYGIGFGPFIITNKHLFRRNNGTLVVQSLHGVFKVKDTTTLQQHLVDGRDMIIIRMPKDFPPFPQKLKFREPQREERICLVTTNFQTKSMSSMVSDTSCTFPSGKGIFWKHWIQTKDGQCGSPLVSTRDGFIVGIHSASNFTNTNNYFTSVPKNFMELLTNQEAQQWVSGWRLNADSVLWGGHKVFMVKPEEPFQPVKEATQL [D137K]
area with substrate EALYFQS: 0.0371
area with substrate ECLYFQS: 0.0791
area with substrate EELYFQS: 0.148
area with substrate EGLYFQS: 0.098
area with substrate EHLYFQS: 0.0832
area with substrate EILYFQS: 0.0897
area with substrate EKLYFQS: 0.121
area with substrate ELLYFQS: 0.0804
area with substrate EPLYFQS: 0.109
area with substrate EQLYFQS: 0.0905
area with substrate ERLYFQS: 0.0875
area with substrate ESLYFQS: 0.0696
area with substrate EVLYFQS: 0.0868
area with substrate EWLYFQS: 0.0653
area with substrate EYLYFQS: 0.0984

MGESLFKGPRDYNPISSSICHLTNESDGHTTSLYGIGFGPFIITNKHLFRRNNGTLVVQSLHGVFKVKDTTTLQQHLVDGRDMIIIRMPKDFPPFPQKLKFREPQREERICLVTTNFQTKSMSSMVSDTSCTFPSGDGIFWKHWYQTKDGQCGSPLVSTRDGFIVGIHSASNFTNTNNYFTSVPKNFMELLTNQEAQQWVSGWRLNADSVLWGGHKVFMVKPEEPFQPVKEATQL [I145Y]
area with substrate EALYFQS: 0.0833
area with substrate ECLYFQS: 0.066
area with substrate EELYFQS: 0.0851
area with substrate EHLYFQS: 0.0682
area with substrate EILYFQS: 0.0439
area with substrate EKLYFQS: 0.103
area with substrate ELLYFQS: 0.066
area with substrate EPLYFQS: 0.064
area with substrate EQLYFQS: 0.07
area with substrate ERLYFQS: 0.0718
area with substrate ESLYFQS: 0.071
area with substrate EVLYFQS: 0.0658

MGESLFKGPRDYNPISSSICHLTNESDGHTTSLYGIGFGPFIITNKHLFRRNNGTLVVQSLHGVFKVKDTTTLQQHLVDGRDMIIIRMPKDFPPFPQKLKFREPQREERICLVTTNFQTKSMSSMVSDTSCTFPSGDGIFWHHWIQTKDGQCGSPLVSTRDGFIVGIHSASNFTNTNNYFTSVPKNFMELLTNQEAQQWVSGWRLNADSVLWGGHKVFMVKPEEPFQPVKEATQL [K142H]
area with substrate EALYFQS: 0.0962
area with substrate ECLYFQS: 0.108
area with substrate EDLYFQS: 0.12
area with substrate EELYFQS: 0.132
area with substrate EFLYFQS: 0.0832
area with substrate EGLYFQS: 0.112
area with substrate EHLYFQS: 0.126
area with substrate EILYFQS: 0.123
area with substrate EKLYFQS: 0.0776
area with substrate ELLYFQS: 0.0841
area with substrate EMLYFQS: 0.116
area with substrate EPLYFQS: 0.113
area with substrate EQLYFQS: 0.128
area with substrate ERLYFQS: 0.113
area with substrate ESLYFQS: 0.096
area with substrate ETLYFQS: 0.12
area with substrate EVLYFQS: 0.111
area with substrate EWLYFQS: 0.0843
area with substrate EYLYFQS: 0.115

MGESLFKGPRDYNPISSSICHLTNESDGHTTSLYGIGFGPFIITNKHLFRRNNGTLVVQSLHGVFKVKDTTTLQQHLVDGRDMIIIRMPKDFPPFPQKLKFREPQREERICLVTTNFQTKSMSSMVSDTSCTFPSGDGIFWMHWIQTKDGQCGSPLVSTRDGFIVGIHSASNFTNTNNYFTSVPKNFMELLTNQEAQQWVSGWRLNADSVLWGGHKVFMVKPEEPFQPVKEATQL [K142M]
area with substrate EALYFQS: 0.0999
area with substrate ECLYFQS: 0.106
area with substrate EDLYFQS: 0.132
area with substrate EELYFQS: 0.088
area with substrate EFLYFQS: 0.0262
area with substrate EGLYFQS: 0.105
area with substrate EHLYFQS: 0.111
area with substrate EILYFQS: 0.0882
area with substrate EMLYFQS: 0.0972
area with substrate EQLYFQS: 0.112
area with substrate ERLYFQS: 0.0957
area with substrate ESLYFQS: 0.114
area with substrate EVLYFQS: 0.097
area with substrate EWLYFQS: 0.0986
area with substrate EYLYFQS: 0.0974

MGESLFKGPRDYNPISSSICHLTNESDGHTTSLYGIGFGPFIITNKHLFRRNNGTLVVQSLHGVFKVKDTTTLQQHLVDGRDMIIIRMPKDFPPFPQKLKFREPQREERICLVTTNFQTKSMSSMVSDTSCTFPSGDGIEWKHWIQTKDGQCGSPLVSTRDGFIVGIHSASNFTNTNNYFTSVPKNFMELLTNQEAQQWVSGWRLNADSVLWGGHKVFMVKPEEPFQPVKEATQL [F140E]
area with substrate EALYFQS: 0.0636
area with substrate ECLYFQS: 0.06
area with substrate EDLYFQS: 0.0618
area with substrate EGLYFQS: 0.0588
area with substrate EILYFQS: 0.0484
area with substrate ELLYFQS: 0.0665
area with substrate EMLYFQS: 0.0743
area with substrate EPLYFQS: 0.06
area with substrate EQLYFQS: 0.0595
area with substrate ERLYFQS: 0.0602
area with substrate ETLYFQS: 0.0591
area with substrate EVLYFQS: 0.0622
area with substrate EWLYFQS: 0.0859

MGESLFKGPRDYNPISSSICHLTNESDGHTTSLYGIGFGPFIITNKHLFRRNNGTLVVQSLHGVFKVKDTTTLQQHLVDGRDMIIIRMPKDFPPFPQKLKFREPQREERICLVTTNFQTKSMSSMVSDTSTTFPSGDGIFWKHWIQTKDGQCGSPLVSTRDGFIVGIHSASNFTNTNNYFTSVPKNFMELLTNQEAQQWVSGWRLNADSVLWGGHKVFMVKPEEPFQPVKEATQL [C131T]
area with substrate EALYFQS: 0.106
area with substrate ECLYFQS: 0.12
area with substrate EKLYFQS: 0.122
area with substrate ELLYFQS: 0.121
area with substrate ESLYFQS: 0.114

MGESLFKGPRDYNPISSSICHLTNESDGHTTSLYGIGFGPFIITNKHLFRRNNGTLVVQSLHGVFKVKDTTTLQQHLVDGRDMIIIRMPKDFPPFPQKLKFREPQREERICLVTTNFQTKSMSSMVSDTQCTFPSGDGIFWKHWIQTKDGQCGSPLVSTRDGFIVGIHSASNFTNTNNYFTSVPKNFMELLTNQEAQQWVSGWRLNADSVLWGGHKVFMVKPEEPFQPVKEATQL [S130Q]
area with substrate EALYFQS: 0.134
area with substrate EGLYFQS: 0.0986
area with substrate EHLYFQS: 0.114
area with substrate EKLYFQS: 0.109
area with substrate EMLYFQS: 0.129
area with substrate ERLYFQS: 0.137
area with substrate ESLYFQS: 0.129
area with substrate EVLYFQS: 0.105
area with substrate EWLYFQS: 0.111

MGESLFKGPRDYNPISSSICHLTNESDGHTTSLYGIGFGPFIITNKHLFRRNNGTLVVQSLHGVFKVKDTTTLQQHLVDGRDMIIIRMPKDFPPFPQKLKFREPQREERICLVTTNFQTKSMSSMVSDTGCTFPSGDGIFWKHWIQTKDGQCGSPLVSTRDGFIVGIHSASNFTNTNNYFTSVPKNFMELLTNQEAQQWVSGWRLNADSVLWGGHKVFMVKPEEPFQPVKEATQL [S130G]
area with substrate EALYFQS: 0.141
area with substrate EDLYFQS: 0.164
area with substrate EELYFQS: 0.146
area with substrate EHLYFQS: 0.0824
area with substrate EILYFQS: 0.0962
area with substrate EMLYFQS: 0.126
area with substrate EQLYFQS: 0.167
area with substrate ERLYFQS: 0.0945
area with substrate ESLYFQS: 0.109
area with substrate ETLYFQS: 0.114
area with substrate EVLYFQS: 0.0894
area with substrate EWLYFQS: 0.129

MGESLFKGPRDYNPISSSICHLTNESDGHTTSLYGIGFGPFIITNKHLFRRNNGTLVVQSLHGVFKVKDTTTLQQHLVDGRDMIIIRMPKDFPPFPQKLKFREPQREERICLVTTNFQTKSMSSMVSDTCCTFPSGDGIFWKHWIQTKDGQCGSPLVSTRDGFIVGIHSASNFTNTNNYFTSVPKNFMELLTNQEAQQWVSGWRLNADSVLWGGHKVFMVKPEEPFQPVKEATQL [S130C]
area with substrate EALYFQS: 0.161
area with substrate ECLYFQS: 0.155
area with substrate EILYFQS: 0.122
area with substrate ELLYFQS: 0.109
area with substrate EMLYFQS: 0.209
area with substrate EQLYFQS: 0.19
area with substrate ERLYFQS: 0.129
area with substrate EVLYFQS: 0.125
